Some of the results follow.

This test concerns the target T1, MBP-FoxP1dN (Mus musculus, UniProt P58462 326-579).
T1 sequence: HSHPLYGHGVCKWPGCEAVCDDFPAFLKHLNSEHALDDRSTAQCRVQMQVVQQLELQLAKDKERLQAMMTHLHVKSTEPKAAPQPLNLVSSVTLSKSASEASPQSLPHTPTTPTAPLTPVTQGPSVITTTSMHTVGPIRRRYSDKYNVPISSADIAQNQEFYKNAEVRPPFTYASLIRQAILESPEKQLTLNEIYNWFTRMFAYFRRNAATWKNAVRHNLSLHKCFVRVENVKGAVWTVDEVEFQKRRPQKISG
As to the kind of experiment: PD-seq (MBP pull-down with sequencing); 20 mM Tris-HCl pH 7.5, 100 mM NaCl, 1.5 mM MgCl2, 0.4 uM protein, 0.1 uM dsDNA library, 30 min, room temperature, amylose pull-down; high values mean tight binding. As to conditions: protein: recombinant; tags: His6-MBP; chain copies: 2; dsDNA, one strand shown. The method, boiled down: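 A degenerate double-stranded DNA library, filled in with Klenow, was added at 0.1 µM to 0.4 µM His6-MBP-tagged mouse FoxP3 or FoxP1 fragment lacking the N-terminus, expressed in E. coli. Incubation lasted 30 min at room temperature in Tris pH 7.5 buffer with NaCl and MgCl2, after which complexes were collected on amylose resin, washed three times, digested with proteinase K to free the DNA, barcoded by PCR and sequenced by Illumina. Binding is the pooled-replicate reads-per-million enrichment of pull-down over input.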
As to “GATGATTGTTCTCCCAGCTGATGAATTGTTCCAGTCGAGTAAACAAATTTTCCTAATCTTTCTGTTCAAGCGCCATCTAC”, the binding signal was 1.03 RPM ratio (pull-down/input).

For the sequence “GATGATTGTTCTCCCAGCTGATGAATTGGTTCTGTCGAGTAAACAAATTTTCCTAATCTTTCTGTTCAAGCGCCATCTAC”, the binding signal is 0.898 RPM ratio (pull-down/input).

As to “GATGATTGTTCTCCCAGCTGATGAATTAAACAGGTCGAGTAAACAAATTTTCCTAATCTTTCTGTTCAAGCGCCATCTAC”, the binding signal was 1.21 RPM ratio (pull-down/input).

As for “GATGATTGTTCTCCCAGCTGATGAATTAGTTTGCTCGAGTAAACAAATTTTCCTAATCTTTCTGTTCAAGCGCCATCTAC”, the binding signal is 1.03 RPM ratio (pull-down/input).

As to “GATGATTGTTCTCCCAGCTGATGAATTAGTTAGATCGAGTAAACAAATTTTCCTAATCTTTCTGTTCAAGCGCCATCTAC”, the binding signal was 0.984 RPM ratio (pull-down/input).

On to “GATGATTGTTCTCCCAGCTGATGAATTTGTGAGATCGAGTAAACAAATTTTCCTAATCTTTCTGTTCAAGCGCCATCTAC”, for which the binding signal is 0.937 RPM ratio (pull-down/input).

Consider “GATGATTGTTCTCCCAGCTGATGAATTTAAATCCTCGAGTAAACAAATTTTCCTAATCTTTCTGTTCAAGCGCCATCTAC”, for which the binding signal was 0.844 RPM ratio (pull-down/input).

For the sequence “GATGATTGTTCTCCCAGCTGATGAATTACCCCCCTCGAGTAAACAAATTTTCCTAATCTTTCTGTTCAAGCGCCATCTAC”, the binding signal is 0.93 RPM ratio (pull-down/input).

Turning to “GATGATTGTTCTCCCAGCTGATGAATTCACGTTATCGAGTAAACAAATTTTCCTAATCTTTCTGTTCAAGCGCCATCTAC”, the binding signal was 1.12 RPM ratio (pull-down/input).

Consider “GATGATTGTTCTCCCAGCTGATGAATTGGCTGAATCGAGTAAACAAATTTTCCTAATCTTTCTGTTCAAGCGCCATCTAC”, for which the binding signal is 0.911 RPM ratio (pull-down/input).

As to “GATGATTGTTCTCCCAGCTGATGAATTCGGATCGTCGAGTAAACAAATTTTCCTAATCTTTCTGTTCAAGCGCCATCTAC”, the binding signal is 0.863 RPM ratio (pull-down/input).

With “GATGATTGTTCTCCCAGCTGATGAATTGACCGTATCGAGTAAACAAATTTTCCTAATCTTTCTGTTCAAGCGCCATCTAC”, the binding signal is 0.983 RPM ratio (pull-down/input).

“GATGATTGTTCTCCCAGCTGATGAATTGTAGGGCTCGAGTAAACAAATTTTCCTAATCTTTCTGTTCAAGCGCCATCTAC”: the binding signal was 0.867 RPM ratio (pull-down/input).

As to “GATGATTGTTCTCCCAGCTGATGAATTAGCTGATTCGAGTAAACAAATTTTCCTAATCTTTCTGTTCAAGCGCCATCTAC”, the binding signal was 0.855 RPM ratio (pull-down/input).

Take “GATGATTGTTCTCCCAGCTGATGAATTTTGCGCATCGAGTAAACAAATTTTCCTAATCTTTCTGTTCAAGCGCCATCTAC”: the binding signal was 1.28 RPM ratio (pull-down/input).

On to “GATGATTGTTCTCCCAGCTGATGAATTTACAGCATCGAGTAAACAAATTTTCCTAATCTTTCTGTTCAAGCGCCATCTAC”, for which the binding signal is 1.29 RPM ratio (pull-down/input).

Turning to “GATGATTGTTCTCCCAGCTGATGAATTCAGCGAGTCGAGTAAACAAATTTTCCTAATCTTTCTGTTCAAGCGCCATCTAC”, the binding signal is 0.816 RPM ratio (pull-down/input).

Turning to “GATGATTGTTCTCCCAGCTGATGAATTACGCGATTCGAGTAAACAAATTTTCCTAATCTTTCTGTTCAAGCGCCATCTAC”, the binding signal was 1.07 RPM ratio (pull-down/input).

Consider “GATGATTGTTCTCCCAGCTGATGAATTTCTCCCGTCGAGTAAACAAATTTTCCTAATCTTTCTGTTCAAGCGCCATCTAC”, for which the binding signal was 0.902 RPM ratio (pull-down/input).

Take “GATGATTGTTCTCCCAGCTGATGAATTCAAAGTTTCGAGTAAACAAATTTTCCTAATCTTTCTGTTCAAGCGCCATCTAC”: the binding signal is 0.878 RPM ratio (pull-down/input).

“GATGATTGTTCTCCCAGCTGATGAATTTCAAATCTCGAGTAAACAAATTTTCCTAATCTTTCTGTTCAAGCGCCATCTAC”: the binding signal is 0.766 RPM ratio (pull-down/input).

For the sequence “GATGATTGTTCTCCCAGCTGATGAATTCTAGTGGTCGAGTAAACAAATTTTCCTAATCTTTCTGTTCAAGCGCCATCTAC”, the binding signal was 0.86 RPM ratio (pull-down/input).

Regarding “GATGATTGTTCTCCCAGCTGATGAATTAAGTTTGTCGAGTAAACAAATTTTCCTAATCTTTCTGTTCAAGCGCCATCTAC”, the binding signal was 1.37 RPM ratio (pull-down/input).

As for “GATGATTGTTCTCCCAGCTGATGAATTCTATATTTCGAGTAAACAAATTTTCCTAATCTTTCTGTTCAAGCGCCATCTAC”, the binding signal was 1.09 RPM ratio (pull-down/input).

On to “GATGATTGTTCTCCCAGCTGATGAATTGCCGCCTTCGAGTAAACAAATTTTCCTAATCTTTCTGTTCAAGCGCCATCTAC”, for which the binding signal is 0.995 RPM ratio (pull-down/input).

Take “GATGATTGTTCTCCCAGCTGATGAATTCCTCAAGTCGAGTAAACAAATTTTCCTAATCTTTCTGTTCAAGCGCCATCTAC”: the binding signal is 0.819 RPM ratio (pull-down/input).

With “GATGATTGTTCTCCCAGCTGATGAATTAGCTAAATCGAGTAAACAAATTTTCCTAATCTTTCTGTTCAAGCGCCATCTAC”, the binding signal was 1.06 RPM ratio (pull-down/input).

Regarding “GATGATTGTTCTCCCAGCTGATGAATTGCGACCCTCGAGTAAACAAATTTTCCTAATCTTTCTGTTCAAGCGCCATCTAC”, the binding signal is 1.01 RPM ratio (pull-down/input).

On to “GATGATTGTTCTCCCAGCTGATGAATTGCTAATGTCGAGTAAACAAATTTTCCTAATCTTTCTGTTCAAGCGCCATCTAC”, for which the binding signal is 1.3 RPM ratio (pull-down/input).

Take “GATGATTGTTCTCCCAGCTGATGAATTGGGAATATCGAGTAAACAAATTTTCCTAATCTTTCTGTTCAAGCGCCATCTAC”: the binding signal is 1.01 RPM ratio (pull-down/input).

As to “GATGATTGTTCTCCCAGCTGATGAATTCAGCCTCTCGAGTAAACAAATTTTCCTAATCTTTCTGTTCAAGCGCCATCTAC”, the binding signal is 0.878 RPM ratio (pull-down/input).

Values taken from article PMC12820563, “FoxP3 forms a head-to-head dimer in vivo and stabilizes its multimerization on adjacent microsatellites”.
